Sequences and labels used below:
B1: PJA1, Q8NG27 (protein)
chain: MGQESSKPVWPNPTGGYQSNTGRRYGRRHAYVSFRPPTSQRERIASQRKTNSEVPMHRSAPSQTTKRSRSPFSTTRRSWDDSESSGTNLNIDNEDYSRYPPREYRASGSRRGMAYGHIDSYGADDSEEEGAGPVERPPVRGKTGKFKDDKLYDPEKGARSLAGPPPHFSSFSRDVREERDKLDPVPAARCSASRADFLPQSSVASQSSSEGKLATKGDSSERERREQNLPARPSRAPVSICGGGENTSKSAEEPVVRPKIRNLASPNCVKPKIFFDTDDDDDMPHSTSRWRDTANDNEGHSDGLARRGRGESSSGYPEPKYPEDKREARSDQVKPEKVPRRRRTMADPDFWTHSDDYYKYCDEDSDSDKEWIAALRRKYRSREQTLSSSGESWETLPGKEEREPPQAKVSASTGTSPGPGASASAGAGAGASAGSNGSNYLEEVREPSLQEEQASLEEGEIPWLQYHENDSSSEGDNDSGHELMQPGVFMLDGNNNLEDDSSVSEDLEVDWSLFDGFADGLGVAEAISYVDPQFLTYMALEERLAQAMETALAHLESLAVDVEVANPPASKESIDALPEILVTEDHGAVGQEMCCPICCSEYVKGEVATELPCHHYFHKPCVSIWLQKSGTCPVCRCMFPPPL
B2: ASAH1, Q13510 (protein)
chain: MPGRSCVALVLLAAAVSCAVAQHAPPWTEDCRKSTYPPSGPTYRGAVPWYTINLDLPPYKRWHELMLDKAPVLKVIVNSLKNMINTFVPSGKIMQVVDEKLPGLLGNFPGPFEEEMKGIAAVTDIPLGEIISFNIFYELFTICTSIVAEDKKGHLIHGRNMDFGVFLGWNINNDTWVITEQLKPLTVNLDFQRNNKTVFKASSFAGYVGMLTGFKPGLFSLTLNERFSINGGYLGILEWILGKKDVMWIGFLTRTVLENSTSYEEAKNLLTKTKILAPAYFILGGNQSGEGCVITRDRKESLDVYELDAKQGRWYVVQTNYDRWKHPFFLDDRRTPAKMCLNRTSQENISFETMYDVLSTKPVLNKLTVYTTLIDVTKGQFETYLRDCPDPCIGW
B3: PELI1, Q96FA3 (protein)
chain: MFSPDQENHPSKAPVKYGELIVLGYNGSLPNGDRGRRKSRFALFKRPKANGVKPSTVHIACTPQAAKAISNKDQHSISYTLSRAQTVVVEYTHDSNTDMFQIGRSTESPIDFVVTDTVPGSQSNSDTQSVQSTISRFACRIICERNPPFTARIYAAGFDSSKNIFLGEKAAKWKTSDGQMDGLTTNGVLVMHPRNGFTEDSKPGIWREISVCGNVFSLRETRSAQQRGKMVEIETNQLQDGSLIDLCGATLLWRTAEGLSHTPTVKHLEALRQEINAARPQCPVGFNTLAFPSMKRKDVVDEKQPWVYLNCGHVHGYHNWGNKEERDGKDRECPMCRSVGPYVPLWLGCEAGFYVDAGPPTHAFSPCGHVCSEKTTAYWSQIPLPHGTHTFHAACPFCAHQLAGEQGYIRLIFQGPLD
B4: TAF13, Q15543 (protein)
chain: MADEEEDPTFEEENEEIGGGAEGGQGKRKRLFSKELRCMMYGFGDDQNPYTESVDILEDLVIEFITEMTHKAMSIGRQGRVQVEDIVFLIRKDPRKFARVKDLLTMNEELKRARKAFDEANYGS

This passage reports yeast fitness gain results from the supplement of paper PMC11741623.

The list shows a part of the results. Interaction screen of human proteins with wild-type SARS-CoV-2 proteins by split-DHFR complementation in yeast, 1 µg/mL methotrexate. Value = fitness of the pair (three or more lineages) minus that of the viral protein without a human partner, on a scale set by negative (0) and fused positive (1) controls, mean of up to three cultures; higher = more likely to interact. Active = false discovery rate below 0.05 (one-sided t-test) in at least one culture. Nearly all pairs are not hits, and differences among them are mostly noise (correlation between cultures about 0.3); most hits were seen in one culture only. Human sequences are the Swiss-Prot entries looked up by gene name; the clone may be another isoform. NSP2 values were corrected by the authors for a growth advantage. Listed are human proteins with a hit and a random twelfth of the others.

For one experiment, the target named is SARS-CoV-2 NSP12. As to the kind of experiment: yeast fitness gain over the viral ORF with no human partner (scaled fitness); higher = more likely to interact. As for the experimental part: (§1)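 Split mouse DHFR complementation in pooled diploid yeast: human ORFeome clones carry one fragment and viral ORFs the other; barcoded lineages compete in 1 µg/mL methotrexate and fitness is read by barcode sequencing in up to three cultures.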
Consider B1, for which the yeast fitness gain was inactive: -0.0885.
Same read-out and setting: the result for B2 reads inactive: 0.133.
As for B3, the yeast fitness gain is inactive: 0.12.
Regarding B4, the yeast fitness gain is inactive: -0.0366.

A further experiment has as its target SARS-CoV-2 NSP13. The description is as above. As for the experimental part:
as §1
As to B1, the yeast fitness gain was inactive: 0.0319.
Turning to B2, the yeast fitness gain is inactive: 0.0737.
For B3, the yeast fitness gain was inactive: -0.089.
Still for that read-out and setting: the result for B4 reads inactive: -0.197.

In the next experiment the target is SARS-CoV-2 NSP2. The experiment is described as above. On the procedure:
as §1
As for B1, the yeast fitness gain was inactive: -0.221.
The same measure, in the same setting: in the case of B3 it was inactive: 0.0928; in that of B4, inactive: -0.21.

Another experiment deals with SARS-CoV-2 NSP4. Described as above. On the procedure: as §1
With B1, the yeast fitness gain was inactive: 0.164.
Consider B3, for which the yeast fitness gain is inactive: -0.152.

The next experiment addresses SARS-CoV-2 ORF3B. The experiment is described as above. On the procedure:
as §1
As to B1, the yeast fitness gain is inactive: 0.0667.
For the molecule B3, the yeast fitness gain is inactive: -0.0121.
Still for that read-out and setting: in the case of B4 it was inactive: -0.0409.

The target of a further experiment is SARS-CoV-2 ORF7B. Described as above. As for the experimental part:
as §1
For B1, the yeast fitness gain was inactive: -0.015.
With B3, the yeast fitness gain is inactive: 0.0407.
As to B4, the yeast fitness gain was inactive: 0.108.

The next experiment concerns the target SARS-CoV-2 ORF8. Described as above. On the procedure: as §1
In the case of B1, the yeast fitness gain was inactive: -0.0804.
Consider B3, for which the yeast fitness gain was inactive: 0.0147.
Consider B4, for which the yeast fitness gain is inactive: -0.0363.

For a further experiment, the target named is SARS-CoV-2 ORF9B. Described as above. On the procedure:
as §1
In the case of B1, the yeast fitness gain was inactive: 0.0439.
Consider B2, for which the yeast fitness gain was inactive: 0.013.
B3: the yeast fitness gain was inactive: 0.00484.
B4: the yeast fitness gain was inactive: 0.0838.

Another experiment addresses SARS-CoV-2 S. The experiment is described as above. On the procedure:
as §1
In the case of B1, the yeast fitness gain is inactive: -0.0422.
As to B2, the yeast fitness gain is inactive: 0.159.

For the next experiment, the target named is SARS-CoV-2 NSP5. The experiment is described as above. As for the experimental part:
as §1
As for B2, the yeast fitness gain was inactive: 0.0442.
Still for that read-out and setting: the result for B3 reads inactive: -0.0146.

Another experiment has as its target SARS-CoV-2 ORF6. Described as above. On the procedure:
as §1
In the case of B2, the yeast fitness gain was inactive: 0.053.
Regarding B3, the yeast fitness gain was inactive: 0.036.
Same read-out and setting: in the case of B4 it was inactive: 0.0189.

Another experiment deals with SARS-CoV-2 NSP10. The description is as above. On the procedure:
as §1
Take B3: the yeast fitness gain is inactive: 0.0291.

A further experiment deals with SARS-CoV-2 NSP14. The description is as above. As for the experimental part:
as §1
As to B3, the yeast fitness gain was inactive: 0.291.

The next experiment concerns the target SARS-CoV-2 NSP6. Described as above. On the procedure:
as §1
Take B3: the yeast fitness gain was inactive: -0.00393.

The next experiment has as its target SARS-CoV-2 NSP9. The experiment is described as above. On the procedure:
as §1
As to B3, the yeast fitness gain is inactive: 0.0849.

For the next experiment, the target named is SARS-CoV-2 ORF10. Described as above. On the procedure: as §1
Take B3: the yeast fitness gain was inactive: -0.0502.
Regarding B4, the yeast fitness gain is inactive: -0.0323.

For the next experiment, the target named is SARS-CoV-2 ORF7A. Described as above. As for the experimental part:
as §1
For B4, the yeast fitness gain is inactive: -0.142.
